Experimental data published in the antibiotic and cytotoxicity screens of Wong et al. (2023).
The list shows a part of the results.

What was measured:
[1] = tested on: HSkMC (human skeletal muscle cells); assay: cytotoxicity call (relative viability < 0.9); details: 10 µM
[2] = tested on: HepG2; assay: cytotoxicity call (relative viability < 0.9); details: 10 µM
[3] = tested on: S. aureus RN4220; assay: growth inhibition call (relative growth <= 0.2); details: 50 µM

Question: With `Cn1nccc1CNC(=O)c1ccnn1C` as the molecule, how does the cytotoxicity call [1] read?
Answer: The cytotoxicity call was “inactive”.

Question: What about the cytotoxicity call [2] of the same molecule?
Answer: Its cytotoxicity call is “inactive”.

Question: And the growth inhibition call [3]?
Answer: The growth inhibition call was “inactive”.

Question: For `Cc1noc(C)c1S(=O)(=O)N(C)C[C@H]1Oc2ccc(NC(=O)CCCN(C)C)cc2C(=O)N([C@@H](C)CO)C[C@H]1C`, which cytotoxicity call [1] is on record?
Answer: Its cytotoxicity call is “inactive”.

Question: And the cytotoxicity call [2]?
Answer: Its cytotoxicity call is “inactive”.

Question: What about the growth inhibition call [3] of the same molecule?
Answer: Its growth inhibition call is “inactive”.

Question: Which results are given for `C[C@@H]1CN([C@H](C)CO)C(=O)c2cccc(NC(=O)Nc3ccc(F)cc3)c2O[C@@H]1CN(C)S(C)(=O)=O`?
Answer: cytotoxicity call [1]: inactive; cytotoxicity call [2]: inactive; growth inhibition call [3]: inactive

Question: What does the source list for `NS(=O)(=O)c1ccc(NC(=O)C2CC2)cc1`?
Answer: cytotoxicity call [1]: inactive; cytotoxicity call [2]: active; growth inhibition call [3]: inactive

Question: For `Cc1noc(C)c1NC(=O)Nc1cccc2c1O[C@@H](CN(C)Cc1ccc(Cl)c(Cl)c1)[C@H](C)CN([C@H](C)CO)C2=O`, which cytotoxicity call [1] is on record?
Answer: The cytotoxicity call was “inactive”.

Question: What about the cytotoxicity call [2] of the same molecule?
Answer: Its cytotoxicity call is “inactive”.

Question: What about the growth inhibition call [3] of the same molecule?
Answer: Its growth inhibition call is “inactive”.

Question: Which cytotoxicity call [1] does the source give for `C[C@@H]1CCCCO[C@H](CN(C)Cc2ccccc2)[C@@H](C)CN([C@H](C)CO)C(=O)c2cc(NC(=O)Cc3ccccc3)ccc2O1` here?
Answer: The cytotoxicity call was “inactive”.

Question: What about the cytotoxicity call [2] of the same molecule?
Answer: The cytotoxicity call was “inactive”.

Question: And the growth inhibition call [3]?
Answer: Its growth inhibition call is “inactive”.

Question: What does the source list for `COc1ccc(COC[C@]23N=C4SCCCN4[C@H](c4ccccc4O2)[C@H]3COC(=O)c2ccccc2)cc1`?
Answer: cytotoxicity call [1]: inactive; cytotoxicity call [2]: inactive; growth inhibition call [3]: inactive

Question: With `COc1ccc(S(=O)(=O)N(C)C[C@H]2OCCCC[C@@H](C)Oc3ccc(NC(=O)Nc4ccc(C(F)(F)F)cc4)cc3C(=O)N([C@@H](C)CO)C[C@H]2C)cc1` as the molecule, how does the cytotoxicity call [1] read?
Answer: Its cytotoxicity call is “active”.

Question: And the cytotoxicity call [2]?
Answer: The cytotoxicity call was “active”.

Question: What about the growth inhibition call [3] of the same molecule?
Answer: Its growth inhibition call is “inactive”.

Question: With `Cc1ccccc1S(=O)(=O)N1C[C@@H](O)COC[C@@H]2O[C@@H](CC(=O)NCc3ccccc3Cl)CC[C@H]21` as the molecule, how does the cytotoxicity call [1] read?
Answer: Its cytotoxicity call is “inactive”.

Question: And the cytotoxicity call [2]?
Answer: The cytotoxicity call was “inactive”.

Question: What about the growth inhibition call [3] of the same molecule?
Answer: The growth inhibition call was “inactive”.

Question: `COc1ccc(S(=O)(=O)N(C)C[C@H]2Oc3ccc(NC(=O)Nc4c(C)noc4C)cc3CC(=O)N([C@H](C)CO)C[C@H]2C)cc1` was tested. Which cytotoxicity call [1] did it give?
Answer: The cytotoxicity call was “inactive”.

Question: What about the cytotoxicity call [2] of the same molecule?
Answer: Its cytotoxicity call is “inactive”.

Question: And the growth inhibition call [3]?
Answer: Its growth inhibition call is “inactive”.

Question: With `O=C(NC[C@@H](O)CO)[C@]1(CCS(=O)(=O)c2ccccc2)N=C(c2ccc(OCCCO)cc2)O[C@@H]1c1ccccc1` as the molecule, how does the cytotoxicity call [1] read?
Answer: Its cytotoxicity call is “inactive”.

Question: And the cytotoxicity call [2]?
Answer: Its cytotoxicity call is “inactive”.

Question: What about the growth inhibition call [3] of the same molecule?
Answer: The growth inhibition call was “inactive”.

Question: With `O=C(C[C@@H]1CC=CCC[C@H](Cc2ccc(F)cc2)C(=O)OC[C@@H](Cc2c[nH]c3ccccc23)NC1=O)N[C@@H](CO)Cc1ccccc1` as the molecule, how does the cytotoxicity call [1] read?
Answer: Its cytotoxicity call is “inactive”.

Question: And the cytotoxicity call [2]?
Answer: Its cytotoxicity call is “inactive”.

Question: What about the growth inhibition call [3] of the same molecule?
Answer: The growth inhibition call was “inactive”.

Question: How did the cytotoxicity call [1] turn out when `CC1(C)OC(=O)C2(C(=O)O1)[C@@H](c1ccc(Br)cc1)CC(=O)C[C@H]2c1ccc(Br)cc1` was run?
Answer: Its cytotoxicity call is “inactive”.

Question: What about the cytotoxicity call [2] of the same molecule?
Answer: Its cytotoxicity call is “inactive”.

Question: What about the growth inhibition call [3] of the same molecule?
Answer: The growth inhibition call was “inactive”.

Question: With `C[C@@H]1CCCCO[C@@H](CN(C)Cc2ccncc2)[C@@H](C)CN([C@H](C)CO)C(=O)c2cc(NC(=O)Nc3ccccc3)ccc2O1` as the molecule, how does the cytotoxicity call [1] read?
Answer: The cytotoxicity call was “inactive”.

Question: What about the cytotoxicity call [2] of the same molecule?
Answer: The cytotoxicity call was “inactive”.

Question: And the growth inhibition call [3]?
Answer: Its growth inhibition call is “inactive”.

Question: Which results are given for `Cc1ccc(S(=O)(=O)Nc2ccc3c(c2)C(=O)N(C)[C@H]2CC[C@@H](CC(=O)NCCc4ccncc4)O[C@H]2CO3)cc1`?
Answer: cytotoxicity call [1]: inactive; cytotoxicity call [2]: inactive; growth inhibition call [3]: inactive

Question: For `C[C@@H]1CN([C@@H](C)CO)C(=O)c2cc(NS(=O)(=O)c3ccc(F)cc3)ccc2O[C@@H](C)CCCCO[C@@H]1CN(C)C(=O)Nc1cccc2ccccc12`, which cytotoxicity call [1] is on record?
Answer: The cytotoxicity call was “inactive”.

Question: And the cytotoxicity call [2]?
Answer: Its cytotoxicity call is “inactive”.

Question: And the growth inhibition call [3]?
Answer: The growth inhibition call was “inactive”.

Question: For `CCN1CCC[C@@H]1CN1CNC(=S)NC1`, which cytotoxicity call [1] is on record?
Answer: The cytotoxicity call was “inactive”.

Question: And the cytotoxicity call [2]?
Answer: The cytotoxicity call was “active”.

Question: And the growth inhibition call [3]?
Answer: The growth inhibition call was “inactive”.

Question: Which cytotoxicity call [1] does the source give for `COc1ccc(S(=O)(=O)N[C@@H]2CC[C@@H](CC(=O)N3CCC(Cc4ccccc4)CC3)O[C@H]2CO)cc1` here?
Answer: Its cytotoxicity call is “inactive”.

Question: What about the cytotoxicity call [2] of the same molecule?
Answer: The cytotoxicity call was “inactive”.

Question: What about the growth inhibition call [3] of the same molecule?
Answer: The growth inhibition call was “inactive”.

Question: What does the source list for `C[C@H]1CN([C@@H](C)CO)C(=O)Cc2cc(NC(=O)c3ccncc3)ccc2O[C@H]1CN(C)S(=O)(=O)c1ccc(F)cc1`?
Answer: cytotoxicity call [1]: inactive; cytotoxicity call [2]: inactive; growth inhibition call [3]: inactive

Question: For `COc1ccc(NC(=O)N(C)C[C@@H]2Oc3ccc(NS(=O)(=O)c4cn(C)cn4)cc3CC(=O)N([C@@H](C)CO)C[C@@H]2C)cc1`, which cytotoxicity call [1] is on record?
Answer: The cytotoxicity call was “inactive”.

Question: And the cytotoxicity call [2]?
Answer: Its cytotoxicity call is “inactive”.

Question: And the growth inhibition call [3]?
Answer: The growth inhibition call was “inactive”.

Question: Which cytotoxicity call [1] does the source give for `COc1ccc(NC(=O)Nc2ccc3c(c2)CC(=O)N([C@H](C)CO)C[C@@H](C)[C@H](CN(C)Cc2ccc(C(=O)Nc4ccccc4N)cc2)O3)cc1` here?
Answer: Its cytotoxicity call is “inactive”.

Question: What about the cytotoxicity call [2] of the same molecule?
Answer: Its cytotoxicity call is “inactive”.

Question: What about the growth inhibition call [3] of the same molecule?
Answer: Its growth inhibition call is “inactive”.

Question: `CCCCC1=NC2(CCCC2)C(=O)N1Cc1ccc(-c2ccccc2-c2nnn[nH]2)cc1` was tested. Which cytotoxicity call [1] did it give?
Answer: Its cytotoxicity call is “inactive”.

Question: What about the cytotoxicity call [2] of the same molecule?
Answer: The cytotoxicity call was “inactive”.

Question: And the growth inhibition call [3]?
Answer: The growth inhibition call was “inactive”.

Question: Which results are given for `C[C@@H]1CN([C@@H](C)CO)C(=O)c2cc(NS(=O)(=O)c3ccc(F)cc3)ccc2O[C@@H]1CN(C)S(=O)(=O)c1cccs1`?
Answer: cytotoxicity call [1]: inactive; cytotoxicity call [2]: inactive; growth inhibition call [3]: inactive
